From PubChem BioAssay AID485364 (National Center for Advancing Translational Sciences (NCATS), 2010)
The whole screen tested about 360,000 compounds, of which about 11,000 (3.1%) were called active. This list was built around the results that the source calls inconclusive (neither active nor inactive); the mix of calls is not that of the screen. Calls come from the whole dose curve; as a rule, active = well fitted inhibition curve with a large enough effect; inconclusive = small, poorly fitted or top-dose-only effect; inactive = no such curve, though single readings can be large or run the other way. No potency is given beside an inconclusive call; the fits are too rough.
% is set by controls: 0 for no effect and ±100 for the full control effect; potency is the fitted concentration of half-maximal effect; tags give direction and shape of the fitted curve.
Note: nearly all actives have a fitted effect of over 60% in size.

These compounds were tested against Schistosoma mansoni thioredoxin glutathione reductase (TGR) (UniProt Q962Y6) (assay: qHTS Assay for the Inhibitors of Schistosoma Mansoni Peroxiredoxins). Conditions: purified TGR, DTNB reduction, TNB absorbance 405 nm; activity change, negative = inhibition: at 114 µM (top of the series) unless noted.
Summary of the method: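 Kinetic colorimetric format: TGR-catalysed, NADPH-driven DTNB reduction monitored via TNB absorbance. Enzyme dispensed at 20 nM; compound exposure 15 min at room temperature before reaction start.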
`CCCCCCC(=O)NNC(=O)CC(=O)Nc1ccccc1C(=O)O` was tested, and the Potency was inconclusive [inhibitor, single point]. `CCOc1ccc(C(=O)N2CCC(c3noc(-c4ccc(S(=O)(=O)N5CCCC5)cc4)n3)CC2)cc1` was tested, and the “activity change, negative = inhibition” value was inactive: 1.63%. For `C=CCC1(CC=C)CCCN1C(=O)CC1C(=O)NCCN1Cc1cccc(OC)c1` (centres undefined), the Potency was inconclusive [inhibitor, partial curve]. With `Cc1ccc(OCCn2nnc3sc4c(c3c2=O)CCC(C)C4)cc1` (centres undefined) the “activity change, negative = inhibition” value was inactive: -1.54%. `CCC(OC(=O)c1ccco1)C(=O)NC1CCCC1` (centres undefined) was tested, and the “activity change, negative = inhibition” value was inactive: -3.55%. In the case of `CC(C)(C)C(=O)NC1(C(F)(F)F)C(=O)Nc2c1c(=O)[nH]c(=O)n2-c1ccccc1` (centres undefined), the Potency is reported as inconclusive [inhibitor, single point]. `O=C1CN(C(=O)c2ccc(S(=O)(=O)N3CCCC3)cc2)C(c2ccccc2)c2cc(Br)ccc2N1` (centres undefined) was tested, and the “activity change, negative = inhibition” value was inactive: 4.75%. With `CCOc1ccc(-c2nnc(SCC(=O)NCc3ccccc3)o2)cc1` the “activity change, negative = inhibition” value was inactive: -2.74%. `Cc1ccc(NC(=O)CSc2sc3c(O)cc(=O)[nH]c3c2C#N)c(F)c1` was tested, and the Potency was inconclusive [inhibitor, partial curve]. For `CCOC(=O)c1ccc(NC(=O)c2ccc(=O)n(Cc3cccc(C)c3)c2)cc1`, the “activity change, negative = inhibition” value was inactive: 0.71%. `CN(C)S(=O)(=O)c1ccc(C(=O)Oc2cc(=O)[nH]c3ccccc23)cc1` was tested, and the Potency was active: 20 µM. `CCCOc1ccccc1C(=O)N(Cc1ccc(C)o1)C1CCS(=O)(=O)C1` (centres undefined) was tested, and the Potency was inconclusive [inhibitor, partial curve]. `O=C(c1ccccc1)n1nnc2ccccc21` was tested, and the Potency was active: 15.8 µM. In the case of `CCOC(=O)C1=C(C)N=c2s/c(=C/c3cccc([N+](=O)[O-])c3O)c(=O)n2C1c1cc(OC)c(OC)c(OC)c1` (centres undefined), the Potency is reported as inconclusive [inhibitor, partial curve]. With `COc1ccc(-c2cn3cccnc3n2)cc1NC(=O)c1cc(C)cc(C)c1` the “activity change, negative = inhibition” value was inactive: 2.65%. In the case of `Cc1[nH]n(C)c(=O)c1C(=O)c1c(-c2c(Cl)cccc2Cl)noc1C`, the Potency is reported as active: 25.1 µM. In the case of `CCCCNC(=S)N(CCN(CC)CC)Cc1cc2cc3c(cc2[nH]c1=O)OCCO3`, the Potency is reported as inconclusive [inhibitor, partial curve]. With `COc1cccc(CN2CCN(C(=O)COc3ccc4ccccc4c3)CC2)c1` the Potency was inconclusive [inhibitor, full curve]. `CCOC(=O)c1ccc(NC(=O)NC(C)C2CCCO2)cc1` (centres undefined) was tested, and the “activity change, negative = inhibition” value was inactive: -0.218%. `NC(=S)N/N=C\c1ccccc1OCc1ccccc1` was tested, and the “activity change, negative = inhibition” value was inactive: -5.15%. For `Cc1cc(C)nc(SCC(=O)Oc2ccc3oc(=O)cc(C)c3c2)n1`, the Potency was inconclusive [inhibitor, partial curve]. With `O=C1c2cccc3cc([N+](=O)[O-])cc(c23)C(=O)N1/N=C/c1ccc(O)cc1O` the Potency was inconclusive [inhibitor, partial curve]. In the case of `Cc1c(C(=O)NCCc2ccc(Cl)cc2)sc2nc3n(c(=O)c12)CCCC3`, the Potency is reported as active: 44.7 µM. For `CCCc1ccc(C(C)NC(=S)NCc2ccc(F)cc2)cc1` (centres undefined), the Potency was inconclusive [inhibitor, partial curve, poor fit]. For `O=C(NC(=S)Nc1ccc(Cc2ccncc2)cc1)c1ccc(F)cc1`, the Potency was inconclusive [inhibitor, full curve]. In the case of `COc1ccc(C2C(=O)c3ccccc3C2=Nc2ccc(Br)cc2)cc1` (centres undefined), the Potency is reported as inconclusive [inhibitor, full curve, poor fit]. `Cc1cc(C=C2C(=O)N(C)C(=S)N(C)C2=O)c(C)n1-c1cccnc1` was tested, and the Potency was inconclusive [inhibitor, full curve]. For `CCOC(=O)c1cnc2c(C)c(Cl)ccc2c1Nc1ccc(S(=O)(=O)Nc2ncccn2)cc1`, the “activity change, negative = inhibition” value was inactive: -7.88%. For `O=C(CNC(=O)C1CCCCC1)OCc1cc(=O)oc2ccc3ccccc3c12`, the Potency was inconclusive [inhibitor, single point]. In the case of `CC1=C(C(=O)Nc2ccccc2)C(c2cccs2)C(C#N)=C(SCC#N)N1` (centres undefined), the Potency is reported as inconclusive [inhibitor, partial curve]. For `CC1(C)Cc2c(c(-c3ccco3)[nH]c(=O)c2C#N)CS1`, the Potency was active: 31.6 µM. `COc1ccc(-c2ccc(CCC(=O)O)n2CC(=O)Nc2ccccc2C)cc1` was tested, and the Potency was inconclusive [inhibitor, partial curve]. With `COc1ccc(OC)c(S(=O)(=O)N2CCCC(C(=O)NCc3cccnc3)C2)c1` (centres undefined) the “activity change, negative = inhibition” value was inactive: -3.1%. In the case of `O=C(CN1CCN(CC(=O)Nc2ccccc2F)CC1)Nc1cccc(F)c1`, the Potency is reported as inconclusive [inhibitor, partial curve]. For `CCN(c1cccc(C)c1)S(=O)(=O)c1nnc(NC(=O)c2ccccc2Cl)s1`, the Potency was active: 79.4 µM. With `N#CC1=C(N)C(C#N)(C#N)[C@H](c2cccnc2)[C@H]2CN(C(=O)OCc3ccccc3)CC=C12` the Potency was inconclusive [inhibitor, partial curve]. `CN(Cc1ccccc1)S(=O)(=O)c1ccc(NC(=S)NC(=O)C(C)(C)C)cc1` was tested, and the Potency was inconclusive [inhibitor, full curve, poor fit]. In the case of `COCCNC(=O)C(c1ccc(C)o1)N(C(=O)c1snc(C(N)=O)c1N)c1ccc(C)c(C)c1` (centres undefined), the Potency is reported as inconclusive [inhibitor, partial curve]. In the case of `CCOC(=O)CNCCC(=O)c1ccc(Br)cc1`, the Potency is reported as inconclusive [inhibitor, full curve, poor fit]. With `CCc1nnc(NC(=O)c2cccnc2)s1` the “activity change, negative = inhibition” value was inactive: -3.91%. With `NC(=O)CC[C@@H]1NC(=O)[C@@H]2CCCN2C(=O)c2cc([N+](=O)[O-])cc(I)c2NCCC[C@@H](C(N)=O)NC1=O` the Potency was inconclusive [inhibitor, partial curve]. With `Cc1ccc(S(=O)(=O)CCC(=O)c2cccc([N+](=O)[O-])c2)cc1` the Potency was inconclusive [inhibitor, full curve, poor fit]. In the case of `COCc1ccc(CN2CCCC(CCC(=O)NCc3ccc(C)o3)C2)o1` (centres undefined), the Potency is reported as inconclusive [inhibitor, partial curve]. In the case of `COC(=O)c1ccc(N2C(=O)CC(N3CCC(O)(c4ccc(Br)cc4)CC3)C2=O)cc1` (centres undefined), the Potency is reported as active: 44.7 µM. `COc1ccccc1Oc1ncnc2c1cnn2-c1ccccc1` was tested, and the “activity change, negative = inhibition” value was inactive: -17.3%. For `CC(=O)c1ccc(S(=O)(=O)N2CCCC(N(C)CCc3ccccc3)C2)cc1` (centres undefined), the Potency was inconclusive [inhibitor, full curve]. For `Cc1ccc(C(=O)N/C(=C\c2ccco2)C(=O)N2CC(C)OC(C)C2)cc1C` (centres undefined), the Potency was inconclusive [inhibitor, single point]. `Cc1ccc(N2C(N)=C(C#N)C(c3cccnc3)C3=C2CC(C)(C)CC3=O)cc1` (centres undefined) was tested, and the Potency was active: 39.8 µM. With `CCOC(=O)c1c(C)sc(-c2c(-c3ccccc3)[nH]c3[nH]c(=O)[nH]c(=O)c23)c1O` the “activity change, negative = inhibition” value was inactive: 2.42%. For `Cc1ccccc1-n1nc2c(c1NC(=O)CCCl)CSC2`, the Potency was active: 17.8 µM. In the case of `CCn1ncc(CNC(=O)CCSc2nc(-c3ccco3)cc(C(F)(F)F)n2)c1C`, the “activity change, negative = inhibition” value is reported as inactive: -15.7%. With `CC(C)CCOc1ccc(Cn2c(=O)oc3ccccc32)cc1` the “activity change, negative = inhibition” value was inactive: -0.577%. For `O=C(Nc1ccccc1)N1CCC(=S)Nc2ccccc21`, the “activity change, negative = inhibition” value was inactive: -6.08%. With `CCN(CC)CCN1c2ccccc2Sc2ccc3ccccc3c21` the “activity change, negative = inhibition” value was inactive: -7.19%. For `O=C(Nc1ccc(N2CCCCC2)c(C(=O)O)c1)c1ccco1`, the “activity change, negative = inhibition” value was inactive: -0.615%. With `O=C(COC(=O)c1ccc(O)cc1)c1ccc(S(=O)(=O)N2CCCCC2)cc1` the “activity change, negative = inhibition” value was inactive: -6.32%. In the case of `Cc1ccc(C2CC(=O)Nc3cc4c(cc32)OCCO4)cc1Br` (centres undefined), the “activity change, negative = inhibition” value is reported as inactive: -6.98%. In the case of `CCOC(=O)c1cnc2ccc(C)cc2c1NCCN1CCOCC1`, the Potency is reported as inconclusive [inhibitor, partial curve]. For `COc1ccc(CNc2oc(COc3ccccc3Cl)nc2C#N)cc1`, the Potency was inconclusive [inhibitor, partial curve]. For `Cc1ccc2oc(=O)cc(CN3CCN(C/C=C/c4ccccc4)CC3)c2c1`, the “activity change, negative = inhibition” value was inactive: -28.2%. In the case of `O=C(O)C1CCCN1S(=O)(=O)c1ccc2c(c1)CCC2` (centres undefined), the Potency is reported as inconclusive [inhibitor, partial curve]. In the case of `O=C(CCNc1ccc(Br)cc1)c1cccc([N+](=O)[O-])c1`, the Potency is reported as active: 0.398 µM. `Cc1cccc(C)c1OCC(O)CNS(=O)(=O)c1ccccc1C(=O)N1CCCCC1` (centres undefined) was tested, and the “activity change, negative = inhibition” value was inactive: 4.69%. `CS/C(=C\[N+](=O)[O-])Nc1ccc(C)cc1` was tested, and the Potency was active: 0.316 µM. In the case of `COC(=O)c1cccc(-c2ccc(C(c3c(C)[nH][nH]c3=O)c3c(C)[nH][nH]c3=O)o2)c1`, the Potency is reported as active: 14.1 µM. With `Cc1ccc(S(=O)(=O)CCC(=O)Nc2nc(-c3cccnc3)cs2)cc1` the Potency was inconclusive [inhibitor, full curve]. With `O=C(NCc1ccco1)c1ccc(C(=O)NCc2ccco2)s1` the Potency was inconclusive [inhibitor, partial curve, poor fit]. In the case of `CCOc1ccccc1/C=C\c1nc(O)c([N+](=O)[O-])c(=O)[nH]1`, the “activity change, negative = inhibition” value is reported as inactive: -25%. In the case of `CCCNC(=O)CS(=O)Cc1nc(-c2ccc(OC)cc2)oc1C` (centres undefined), the Potency is reported as active: 50.1 µM. In the case of `CCOc1ccc(CCNC(=O)c2cn(-c3ccc(OC)cc3)c(=O)c3ccccc23)cc1OCC`, the “activity change, negative = inhibition” value is reported as inactive: -0.293%. With `COc1cccc(CNCCc2cccc(F)c2)c1OC` the Potency was inconclusive [inhibitor, partial curve]. `Cc1ccc(C2C=C(c3ccccc3)Nc3nc(NS(=O)(=O)c4ccccc4)nn32)cc1` (centres undefined) was tested, and the Potency was active: 35.5 µM. For `O=C1CCNCCN1[C@H](CO)Cc1ccccc1`, the Potency was inconclusive [inhibitor, full curve, poor fit]. With `CN1CCN(C2CCN(c3cccc(Cl)c3)CC2)CC1CCO` (centres undefined) the Potency was inconclusive [inhibitor, full curve].
